# Measured values reported in the supplement of paper PMC8728848.
# This is one part of the list.
# Legend:
# Assay in all cases: glycan array binding signal (z-score within array); higher = stronger binding
# Details in all cases: glycan notation: IUPAC condensed, linker removed
# [1] = biological target: Gal(b1-3)GlcNAc(a1-3)Gal(b1-4)GlcNAc
# Procedure, shortened: (§1)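 Columns mapping to the same glycan were averaged after glycan names were converted to IUPAC-condensed notation. The data come from 3228 arrays in the Consortium for Functional Glycomics database, limited to those with an available protein sequence. Binding is reported as a within-array Z-score averaged across arrays of one protein sequence and across linkers.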
# [2] = biological target: Gal(b1-3)GlcNAc(a1-6)Gal(b1-4)GlcNAc
# Procedure, shortened: as §1
# Gal(b1-3)GlcNAc(b1-2)Man = biological target: Gal(b1-3)GlcNAc(b1-2)Man
# Procedure, shortened: as §1
# [3] = biological target: Gal(b1-3)GlcNAc(b1-2)Man(a1-3)[Gal(b1-3)GlcNAc(b1-2)Man(a1-6)]Man(b1-4)GlcNAc(b1-4)GlcNAc
# Procedure, shortened: as §1
# [4] = biological target: Gal(b1-3)GlcNAc(b1-2)Man(a1-3)[Gal(b1-3)GlcNAc(b1-2)Man(a1-6)]Man(b1-4)GlcNAc(b1-4)[Fuc(a1-6)]GlcNAc
# Procedure, shortened: as §1
# [5] = biological target: Gal(b1-3)GlcNAc(b1-2)Man(a1-3)[GlcNAc(b1-4)][Gal(b1-3)GlcNAc(b1-2)Man(a1-6)]Man(b1-4)GlcNAc(b1-4)GlcNAc
# Procedure, shortened: as §1
# [6] = biological target: Gal(b1-3)GlcNAc(b1-2)[Gal(b1-3)GlcNAc(b1-6)]Man(a1-6)[Gal(b1-3)GlcNAc(b1-2)Man(a1-3)]Man(b1-4)GlcNAc(b1-4)GlcNAc
# Procedure, shortened: as §1
# [7] = biological target: Gal(b1-3)GlcNAc(b1-3)Gal(b1-3)GlcNAc
# Procedure, shortened: as §1
# [8] = biological target: Gal(b1-3)GlcNAc(b1-3)Gal(b1-4)Glc
# Procedure, shortened: as §1
# [9] = biological target: Gal(b1-3)GlcNAc(b1-3)Gal(b1-4)GlcNAc
# Procedure, shortened: as §1
# [10] = biological target: Gal(b1-3)GlcNAc(b1-3)Gal(b1-4)GlcNAc(b1-2)Man(a1-3)[Gal(b1-3)GlcNAc(b1-3)Gal(b1-4)GlcNAc(b1-2)Man(a1-6)]Man(b1-4)GlcNAc(b1-4)GlcNAc
# Procedure, shortened: as §1
# [11] = biological target: Gal(b1-3)GlcNAc(b1-3)Gal(b1-4)GlcNAc(b1-2)[Gal(b1-3)GlcNAc(b1-3)Gal(b1-4)GlcNAc(b1-6)]Man(a1-6)[Gal(b1-3)GlcNAc(b1-3)Gal(b1-4)GlcNAc(b1-2)Man(a1-3)]Man(b1-4)GlcNAc(b1-4)[Fuc(a1-6)]GlcNAc
# Procedure, shortened: as §1
# [12] = biological target: Gal(b1-3)GlcNAc(b1-3)Gal(b1-4)GlcNAc(b1-3)Gal(b1-4)GlcNAc(b1-2)[Gal(b1-3)GlcNAc(b1-3)Gal(b1-4)GlcNAc(b1-3)Gal(b1-4)GlcNAc(b1-6)]Man(a1-6)[Gal(b1-3)GlcNAc(b1-3)Gal(b1-4)GlcNAc(b1-3)Gal(b1-4)GlcNAc(b1-2)Man(a1-3)]Man(b1-4)GlcNAc(b1-4)[Fuc(a1-6)]GlcNAc
# Procedure, shortened: as §1
# [13] = biological target: Gal(b1-3)GlcNAc(b1-3)Gal(b1-4)GlcNAc(b1-6)[Gal(b1-3)GlcNAc(b1-3)]Gal(b1-4)Glc
# Procedure, shortened: as §1
# [14] = biological target: Gal(b1-3)GlcNAc(b1-3)Gal(b1-4)[Fuc(a1-3)]GlcNAc
# Procedure, shortened: as §1
# [15] = biological target: Gal(b1-3)GlcNAc(b1-3)Gal(b1-4)[Fuc(a1-3)]GlcNAc(b1-6)[Gal(b1-3)GlcNAc(b1-3)]Gal(b1-4)Glc
# Procedure, shortened: as §1
# [16] = biological target: Gal(b1-3)GlcNAc(b1-3)GalNAc
# Procedure, shortened: as §1
# [17] = biological target: Gal(b1-3)GlcNAc(b1-6)Gal(b1-4)GlcNAc
# Procedure, shortened: as §1
# [18] = biological target: Gal(b1-3)GlcNAc(b1-6)GalNAc
# Procedure, shortened: as §1
# [19] = biological target: Gal(b1-3)GlcNAc(b1-6)[Gal(b1-3)]GalNAc
# Procedure, shortened: as §1
# Gal(b1-3)GlcNAc6S = biological target: Gal(b1-3)GlcNAc6S
# Procedure, shortened: as §1
# [20] = biological target: Gal(b1-3)[Fuc(a1-4)]GlcNAc
# Procedure, shortened: as §1
# [21] = biological target: Gal(b1-3)[Fuc(a1-4)]GlcNAc(b1-2)Man
# Procedure, shortened: as §1
# [22] = biological target: Gal(b1-3)[Fuc(a1-4)]GlcNAc(b1-2)Man(a1-3)[Gal(b1-3)[Fuc(a1-4)]GlcNAc(b1-2)Man(a1-6)]Man(b1-4)GlcNAc(b1-4)[Fuc(a1-6)]GlcNAc
# Procedure, shortened: as §1
# [23] = biological target: Gal(b1-3)[Fuc(a1-4)]GlcNAc(b1-3)Gal(b1-3)[Fuc(a1-4)]GlcNAc
# Procedure, shortened: as §1
# [24] = biological target: Gal(b1-3)[Fuc(a1-4)]GlcNAc(b1-3)Gal(b1-4)GlcNAc
# Procedure, shortened: as §1
# [25] = biological target: Gal(b1-3)[Fuc(a1-4)]GlcNAc(b1-3)Gal(b1-4)[Fuc(a1-3)]GlcNAc
# Procedure, shortened: as §1
# [26] = biological target: Gal(b1-3)[Fuc(a1-4)]GlcNAc(b1-6)GalNAc
# Procedure, shortened: as §1
# [27] = biological target: Gal(b1-3)[GlcNAc(b1-6)]GalNAc
# Procedure, shortened: as §1
# [28] = biological target: Gal(b1-3)[Neu5Ac(a2-6)]GalNAc
# Procedure, shortened: as §1
# [29] = biological target: Gal(b1-3)[Neu5Ac(a2-6)]GlcNAc(b1-4)Gal(b1-4)Glc
# Procedure, shortened: as §1
# [30] = biological target: Gal(b1-3)[Neu5Ac(a2-6)]GlcNAc(b1-6)Gal(b1-4)Glc
# Procedure, shortened: as §1
# [31] = biological target: Gal(b1-3)[Neu5Ac(b2-6)]GalNAc
# Procedure, shortened: as §1
# Gal(b1-4)Gal = biological target: Gal(b1-4)Gal
# Procedure, shortened: as §1
# [32] = biological target: Gal(b1-4)GalNAc(a1-3)[Fuc(a1-2)]Gal(b1-4)GlcNAc
# Procedure, shortened: as §1
# [33] = biological target: Gal(b1-4)GalNAc(b1-3)[Fuc(a1-2)]Gal(b1-4)GlcNAc
# Procedure, shortened: as §1
# Gal(b1-4)Glc = biological target: Gal(b1-4)Glc
# Procedure, shortened: as §1
# Gal(b1-4)Glc6S = biological target: Gal(b1-4)Glc6S
# Procedure, shortened: as §1
# Gal(b1-4)GlcNAc = biological target: Gal(b1-4)GlcNAc
# Procedure, shortened: as §1
# [34] = biological target: Gal(b1-4)GlcNAc(a1-6)Gal(b1-4)GlcNAc
# Procedure, shortened: as §1
# Gal(b1-4)GlcNAc(b1-2)Man = biological target: Gal(b1-4)GlcNAc(b1-2)Man
# Procedure, shortened: as §1
# [35] = biological target: Gal(b1-4)GlcNAc(b1-2)Man(a1-3)Man(b1-4)GlcNAc(b1-4)GlcNAc
# Procedure, shortened: as §1
# [36] = biological target: Gal(b1-4)GlcNAc(b1-2)Man(a1-3)[Gal(b1-4)GlcNAc(b1-2)Man(a1-6)]Man(b1-4)GlcNAc(b1-4)GlcNAc
# Procedure, shortened: as §1
# [37] = biological target: Gal(b1-4)GlcNAc(b1-2)Man(a1-3)[Gal(b1-4)GlcNAc(b1-2)Man(a1-6)]Man(b1-4)GlcNAc(b1-4)[Fuc(a1-6)]GlcNAc
# Procedure, shortened: as §1
# [38] = biological target: Gal(b1-4)GlcNAc(b1-2)Man(a1-3)[Gal(b1-4)GlcNAc(b1-2)Man(a1-6)][Gal(b1-4)GlcNAc(b1-4)]Man(b1-4)GlcNAc(b1-4)[Fuc(a1-6)]GlcNAc
# Procedure, shortened: as §1
binder,measurement,setting,value
Jacalin (Artocarpus integrifolia) (protein) MAYSSLLSLSVLALLFSISSADTRKWFLANGINQNPIGIIEAAVGVSEDLLNLNGMEAKNDEQSGISQTVIVGPWGAKVSTSSNGKAFDDGAFTGIREINLSYNKETAIGDFQVVYDLNGSPYVGQNHKSFITGFTPVKISLDFPSEYIMEVSGYTGNVSGYVVVRSLTFKTNKKTYGPYGVTSGTPFNLPIENGLIVGFKGSIGYWLDYFSMYLSL,glycan array binding signal (z-score),[1],-0.291
same,glycan array binding signal (z-score),[2],-0.256
same,glycan array binding signal (z-score),Gal(b1-3)GlcNAc(b1-2)Man,-0.247
same,glycan array binding signal (z-score),[3],-0.219
same,glycan array binding signal (z-score),[4],0.255
same,glycan array binding signal (z-score),[5],-0.24
same,glycan array binding signal (z-score),[6],-0.245
same,glycan array binding signal (z-score),[7],-0.241
same,glycan array binding signal (z-score),[8],-0.279
same,glycan array binding signal (z-score),[9],-0.276
same,glycan array binding signal (z-score),[10],-0.241
same,glycan array binding signal (z-score),[11],-0.084
same,glycan array binding signal (z-score),[12],0.113
same,glycan array binding signal (z-score),[13],-0.275
same,glycan array binding signal (z-score),[14],-0.27
same,glycan array binding signal (z-score),[15],-0.258
same,glycan array binding signal (z-score),[16],1.05
same,glycan array binding signal (z-score),[17],-0.276
same,glycan array binding signal (z-score),[18],-0.279
same,glycan array binding signal (z-score),[19],-0.251
same,glycan array binding signal (z-score),Gal(b1-3)GlcNAc6S,-0.272
same,glycan array binding signal (z-score),[20],-0.272
same,glycan array binding signal (z-score),[21],-0.241
same,glycan array binding signal (z-score),[22],0.006
same,glycan array binding signal (z-score),[23],-0.256
same,glycan array binding signal (z-score),[24],-0.357
same,glycan array binding signal (z-score),[25],-0.267
same,glycan array binding signal (z-score),[26],-0.255
same,glycan array binding signal (z-score),[27],-0.203
same,glycan array binding signal (z-score),[28],-0.268
same,glycan array binding signal (z-score),[29],-0.268
same,glycan array binding signal (z-score),[30],-0.343
same,glycan array binding signal (z-score),[31],-0.284
same,glycan array binding signal (z-score),Gal(b1-4)Gal,-0.257
same,glycan array binding signal (z-score),[32],-0.256
same,glycan array binding signal (z-score),[33],-0.271
same,glycan array binding signal (z-score),Gal(b1-4)Glc,-0.274
same,glycan array binding signal (z-score),Gal(b1-4)Glc6S,-0.26
same,glycan array binding signal (z-score),Gal(b1-4)GlcNAc,-0.26
same,glycan array binding signal (z-score),[34],-0.265
same,glycan array binding signal (z-score),Gal(b1-4)GlcNAc(b1-2)Man,-0.277
same,glycan array binding signal (z-score),[35],-0.243
same,glycan array binding signal (z-score),[36],-0.276
same,glycan array binding signal (z-score),[37],-0.012
same,glycan array binding signal (z-score),[38],-0.268
